These are yes or no findings as the source states them, for the method shown. Some results given as binding are weak or reduced against the parent protein; the word gives no strength.

By UniProt entry, the sequences of proteins in these tests, tags left out. Where a name states a change or a piece, a line headed by the entry shows the natural chain unless it says otherwise.
UniProt Q9Y3C8: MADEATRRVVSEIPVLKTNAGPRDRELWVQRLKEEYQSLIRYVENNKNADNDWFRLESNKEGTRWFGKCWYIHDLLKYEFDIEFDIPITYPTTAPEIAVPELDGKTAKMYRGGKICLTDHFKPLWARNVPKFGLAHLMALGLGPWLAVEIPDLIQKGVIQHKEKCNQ
UniProt Q9GZZ9: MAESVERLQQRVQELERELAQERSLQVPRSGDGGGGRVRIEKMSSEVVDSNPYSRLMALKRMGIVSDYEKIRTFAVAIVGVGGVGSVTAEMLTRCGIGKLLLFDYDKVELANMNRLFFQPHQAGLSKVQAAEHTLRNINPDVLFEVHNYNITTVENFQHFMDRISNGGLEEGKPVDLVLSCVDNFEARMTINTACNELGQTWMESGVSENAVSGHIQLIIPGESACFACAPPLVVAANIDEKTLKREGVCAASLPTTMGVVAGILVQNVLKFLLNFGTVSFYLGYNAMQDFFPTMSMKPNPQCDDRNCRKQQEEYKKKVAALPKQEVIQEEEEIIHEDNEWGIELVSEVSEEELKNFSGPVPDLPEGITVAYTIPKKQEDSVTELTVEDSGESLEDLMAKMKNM

Binding data for 5 substances are collected here from paper PMC8481289.

One assay concerns the target UFC1 (human) (UniProt Q9Y3C8). Description: condition: 9.00E-04 M in the syringe, 1.00E-04 M in the cell (Supplementary Table 2); ITC; MicroCal PEAQ ITC, 25 °C; Tris 20 mM pH 7.5, NaCl 50 mM, DTT 2 mM; UBA5 construct in the syringe into UFC1 in the cell (Supplementary Table 2); 19 injections of 2 μl; fitted to the two sets of sites model; both purified.
For assay [1], the target named is UBA5 (347-404) fragment (human) (UniProt Q9GZZ9). Description: SEC-MALS; Superdex 75 10/300 GL; 20 mM Tris pH 7.5, 50 mM NaCl; mass calculated with ASTRA 7; both purified.
In another assay the target is UFC1 (WT) (human) (UniProt Q9Y3C8). Description: NMR titration; UBA5 fragments (347-404: 50-200 μM; 347-392: 0.4-1.6 mM) titrated into 200 μM 15N-labelled UFC1; 2D 1H-15N HSQC, 25 °C; 50 mM HEPES pH 7.0, 50 mM KCl, 1 mM DTT, 0.03% NaN3, 10% D2O; both purified.
The next assay addresses UBA5 M401R (human) (UniProt Q9GZZ9). Put plainly: ITC; UFC1 titrated into the UBA5 construct (heat per mole of UFC1); MicroCal PEAQ ITC, 25 °C; 20 mM Tris pH 7.5, 50 mM NaCl, 2 mM DTT; 19 injections of 2 μl; fitted to the two sets of sites model; both purified.
The target of the next assay is UBA5 L397R (human) (UniProt Q9GZZ9). Described as above.

“UBA5 1-404 L397R (from UniProt Q9GZZ9 1-404) (enzyme)”: in the assay with UFC1 (human), the binding entry is listed as “no binding”.
With “UBA5 1-404 M401R (from UniProt Q9GZZ9 1-404) (enzyme)”, the binding entry with UFC1 (human) was “no binding”.
With “UBA5 (347-404) fragment (from UniProt Q9GZZ9 347-404) (domain or fragment)”, the binding result in assay [1] is “no binding”.
Turning to “UBA5 linker alone (residues 347–392) (from UniProt Q9GZZ9 347-392) (domain or fragment)”, in the assay with UFC1 (WT) (human), the binding result is on record as “binds weakly”.
Take “UFC1 (WT) (from UniProt Q9Y3C8 1-167) (enzyme)”: the binding entry with UBA5 M401R (human) and with UBA5 L397R (human) was “no binding” in each case.
